Measurements reported in PubChem BioAssay AID488969 (Vanderbilt High Throughput Screening Facility, 2010).
The full ranking holds about 110,000 compounds; the median of “z-score” is about -0.1, and the highest 2% start at about 2. Some of the results follow. Calls of active or inactive are those of the source.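 The calls were made as follows: active = z-score in the third read window above 3 or below -3; inactive = the rest.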

molecular target: Metabotropic glutamate receptor 8 (Rattus norvegicus) (UniProt P70579); assay: rat mGluR8 modulators via GIRK flux, primary screen, cell-based, thallium flux, HTS (AID 488969); settings: HEK293 rat mGluR8, GIRK (G protein-gated inwardly rectifying potassium channel) thallium flux, FluoZin2; at 10 µM; stronger effect = higher value; submaximal glutamate (EC20) added with thallium
Chain of UniProt P70579 (P70579 whole entry, looked up): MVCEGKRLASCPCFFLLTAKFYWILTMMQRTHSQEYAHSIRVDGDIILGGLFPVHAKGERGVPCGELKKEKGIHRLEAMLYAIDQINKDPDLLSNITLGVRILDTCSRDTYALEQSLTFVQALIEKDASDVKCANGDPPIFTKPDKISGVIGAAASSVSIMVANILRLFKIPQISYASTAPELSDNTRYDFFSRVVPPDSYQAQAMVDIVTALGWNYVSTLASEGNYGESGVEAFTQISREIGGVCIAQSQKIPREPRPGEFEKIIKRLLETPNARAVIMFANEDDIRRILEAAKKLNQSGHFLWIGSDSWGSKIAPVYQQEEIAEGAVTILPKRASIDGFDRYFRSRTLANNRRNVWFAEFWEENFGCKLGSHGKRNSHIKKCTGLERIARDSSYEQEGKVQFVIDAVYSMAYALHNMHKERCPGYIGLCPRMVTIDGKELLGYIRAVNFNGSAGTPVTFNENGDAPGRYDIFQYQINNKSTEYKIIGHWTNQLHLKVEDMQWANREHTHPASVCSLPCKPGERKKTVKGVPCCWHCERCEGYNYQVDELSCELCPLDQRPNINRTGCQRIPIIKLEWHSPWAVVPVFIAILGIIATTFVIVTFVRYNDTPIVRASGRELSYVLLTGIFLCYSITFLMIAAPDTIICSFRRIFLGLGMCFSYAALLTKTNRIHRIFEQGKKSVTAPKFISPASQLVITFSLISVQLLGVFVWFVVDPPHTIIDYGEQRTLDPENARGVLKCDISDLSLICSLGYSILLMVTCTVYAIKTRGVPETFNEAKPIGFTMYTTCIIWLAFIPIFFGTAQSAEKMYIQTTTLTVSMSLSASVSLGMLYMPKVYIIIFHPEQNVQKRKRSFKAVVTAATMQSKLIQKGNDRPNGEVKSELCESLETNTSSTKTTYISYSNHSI

Row | SMILES | z-score
1 | Cc1cccc(C)c1OCCCN1CCCC1 | 0.0506
2 | COc1cccc2cc(C(=O)N3CCc4ccccc43)c(=O)oc12 | -0.212
3 | CCOC(=O)c1ccc(CSc2nnc(C)n2N)o1 | -0.131
4 | O=C(/C=C\c1ccc2c(c1)OCO2)NC1(C(=O)Nc2ccc3c(c2)OCCO3)CCCCC1 | 0.845
5 | Cc1n[nH]c(=O)nc1NC(C)c1ccccc1 (configuration not stated) | -0.0669
6 | COc1cc(NC(=O)c2cccnc2Sc2ccc(Cl)cc2)cc(OC)c1OC | -0.134
7 | CC(=O)NC1=C(N(C)C2CCS(=O)(=O)C2)C(=O)c2ccccc2C1=O (configuration not stated) | -0.129
8 | CC(=O)Oc1cc2oc(=O)c3c(c2cc1Cl)CCC3 | 0.0481
9 | O=S(=O)(Nc1cccnc1)c1ccc(Cl)cc1 | -0.0138
10 | Cc1cc(OC(=O)c2cccs2)ccc1C(C)C | -0.221
11 | COc1ccc(NC(=O)c2ccccc2NS(=O)(=O)c2ccc(C)cc2)c([N+](=O)[O-])c1 | 0.0902
12 | Cc1ccc(NC(=O)CSc2ccc(C(N)=O)cc2[N+](=O)[O-])cc1 | -0.417
13 | COc1ccc(NC(=O)c2cccc(NC(=O)C(C)C)c2)c([N+](=O)[O-])c1 | -0.134
14 | CCOC(=O)C1=C(C)NC(=O)NC1c1ccc(Br)s1 (configuration not stated) | -0.44
15 | COc1ccccc1/C=C/C(=O)N1CCCC1 | -0.149
16 | Nc1sccc1C(=O)c1ccccc1 | active: 11

Row | SMILES | z-score
17 | CCCc1cc(O)c2c(C)cc(=O)oc2c1 | -1.44
18 | CCOC(=O)c1c(NC(=O)Cn2cnc([N+](=O)[O-])n2)sc2c1CCCC2 | -0.115
19 | O=C(N/N=C/c1ccncc1)c1cc2c(ccc3ccccc32)o1 | -0.0463
20 | CCN(CC)S(=O)(=O)c1ccc(NC(=O)Cn2c(=O)oc3ccccc32)cc1 | 0.44
21 | O=C(CN1CCCCC1)NCCNc1ccc(C(F)(F)F)cc1[N+](=O)[O-] | 0.134
22 | Cc1ccccc1CNC(=O)c1ccccc1C(=O)O | 1.14
23 | NC(=O)C1CCN(CC(=O)NCc2ccccc2)CC1 | 0.259
24 | CC(=O)CC(C)(C)S(=O)(=O)c1ccc(NC(C)=O)cc1 | -0.279
25 | COc1ccc(C(=O)NCCC2=CCCCC2)cc1 | -0.145
26 | Cc1nn(Cc2ccc(F)cc2)c(C)c1NC(=O)c1cc(-c2ccco2)on1 | 0.924
27 | CC(C)C(=O)Nc1cccc(-c2csc(-c3ccccc3)n2)c1 | 0.193
28 | C=CCn1c(SCc2ccc(C#N)cc2)nnc1-c1cccc(OC)c1 | 0.588
29 | COC(=O)C1=C(C)NC(=O)/C1=C\c1ccco1 | active: 8.73
30 | O=c1c2ccccc2nc(SCc2nc3ccccc3s2)n1CCCO | -0.147
31 | Cc1ccc(S(=O)(=O)/C(=C/Cl)NC(=O)c2ccccc2)cc1 | -0.0768
32 | O=C(NCc1ccoc1)c1ccc(NC(=O)c2ccccc2Cl)cc1 | -0.818
